In PubChem BioAssay AID1508623 (National Center for Advancing Translational Sciences (NCATS), 2021):
Screen size: about 48,000 compounds; about 450 (0.94%) were called active. Roughly 19% stayed inconclusive and do not appear here. Calls come from the whole dose curve; as a rule, active = well fitted inhibition curve with a large enough effect; inconclusive = small, poorly fitted or top-dose-only effect; inactive = no such curve, though single readings can be large or run the other way. This is one part of the list.

assay: Primary qHTS for Identification of Small Molecule Inhibitors of Huntingtin Promoter Activity; details: HEK293 HTT promoter firefly luciferase reporter (activity 0% = vehicle and -100% = no light), 24 h; series mostly up to 57.5 µM; activity change, negative = inhibition: at the top concentration; note: nearly all actives have a fitted effect of over 50% in size
In short: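 HEK293 luciferase promoter-reporter cells (2,500/well) plated 24 h, then compounds added at up to 57.5 uM final for 24 h at 37 °C. Firefly luminescence by Dual-Glo, normalized to vehicle (0%) and zero RLU (-100%).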
Potency is the fitted concentration of half-maximal effect.

SMILES | activity change, negative = inhibition | Potency
CCOc1ccc(-c2oc3ccc(C)cc3c(=O)c2O)cc1 | inactive: 36.9% | 
Fc1ccc(Nc2ncnc3c2nc2n3CCCCC2)c(F)c1 | inactive: -11.1% | 
COCCCNC(=O)c1ccc2c(c1)nc(C)n2-c1cccc(C)c1 | inactive: -21.8% | 
O=C(Nc1ccc(C(=O)OCc2cc(=O)n3nc(C4CC4)sc3n2)cc1)c1cccc(F)c1 | inactive: -17.7% | 
CCN(c1ccccc1)S(=O)(=O)c1ccc(NC(=O)c2cc(=O)c3ccccc3o2)cc1 | inactive: -15% | 
CCOC(=O)c1c(S(=O)(=O)N2CCC(C(=O)Nc3ncccc3C)CC2)c(C)n(C)c1C | inactive: -10.5% | 
COc1ccc2c(CNC3CCCCCC3)c(C(=O)O)n(Cc3ccccc3F)c2c1 | inactive: -26.9% | 
CCC(=O)N1CCc2cc(Br)cc(S(=O)(=O)CCC(=O)N3CCN(c4cc(C)ccc4C)CC3)c21 | inactive: -8.81% | 
CCCc1nnc(NC(=O)c2cc(=O)c3cc(C)c(C)cc3o2)s1 | inactive: -5.4% | 
CCOC(=O)c1cnc2ccc(C)cc2c1Nc1ccc(N(CC)CC)cc1 |  | active: 25.1 µM
Cc1ccc(N2CC(NC(=O)CCc3ccccc3)CC2=O)cc1 (stereo unspecified) | inactive: -17.6% | 
CC1=C(C(=O)NCc2ccc(Cl)cc2)C2(CCCCCC2)OC1=O | inactive: -28.3% | 
COc1ccc(-c2ccc3c(N)c(C(=O)Nc4cccc(C)c4)sc3n2)cc1 | inactive: 4.16% | 
COc1cccc(CSc2nc3n(n2)C(c2cccnc2)C(C(=O)Nc2ccccc2C)=C(C)N3)c1 (stereo unspecified) | inactive: 3.93% | 
COc1ccccc1C(=O)Nc1ccc(C(=O)OCc2cc(=O)n3ccsc3n2)cc1 | inactive: 3.56% | 
Cc1nc2cc(C(=O)O)ccc2n1-c1ccc(C(C)C)cc1 | inactive: 33% | 
CCOC(=O)CCn1nc(C)c2c(C)n(-c3ccccc3)nc2c1=O | inactive: -15.1% | 
Cc1cccc(N2CCN(C(=O)Cn3c(=O)c4cccn4c4ccc(F)cc43)CC2)c1C | inactive: -4.05% | 
Cc1ccc(NC(=O)c2ccc(Br)cc2)c(C(=O)c2ccccc2)c1 | inactive: -9.65% | 
Cc1nc2nc(SCC(=O)NCc3ccccc3)nn2c(C)c1Cc1ccccc1 | inactive: -23.6% | 
COc1ccc(OC)c(CNC(=O)CN2C(=O)CCn3nc(-c4cn(C)c5ccccc45)cc32)c1 | inactive: 10.4% | 
CC(=O)Oc1ccccc1C(=O)O | inactive | 
CCc1cccc(NC(=O)CN2C=NS(=O)(=O)c3ccccc32)c1 | inactive: -22.3% | 
CCOc1nc(NC(=O)NS(=O)(=O)Oc2ccccc2Cl)nc(-c2ccccc2)n1 | inactive: 49.9% | 

SMILES | activity change, negative = inhibition | Potency
COc1cc2nc(NCC(C)c3ccccc3)n3nc(-c4ccccc4)nc3c2cc1OC (stereo unspecified) | inactive: 2.56% | 
Cc1ccc(C)n1-c1nnc(N2CCCC(C(=O)NCc3ccccc3)C2)s1 (stereo unspecified) | inactive: -3.67% | 
Cc1ccc(NC(=O)CCc2c(C)nc3nc(C)nn3c2C)c(Cl)c1 | inactive: -11.7% | 
CCOC(=O)c1ccccc1NC(=O)N(Cc1ccco1)C1CCN(C(C)=O)CC1 | inactive: -14% | 
CNC(=O)c1ccc(Nc2nnc(-c3ccc(C)c(S(=O)(=O)N4CCOCC4)c3)c3ccccc23)cc1 | inactive: 2.49% | 
O=C(c1ccco1)n1nc(-c2ccccc2)nc1NCc1ccccc1Cl | inactive: -4.78% | 
Cc1ccc(N(Cc2cccs2)C(=O)COc2ccccc2[N+](=O)[O-])cc1 | inactive: -31.1% | 
Cc1cccc(-c2nc(Cn3c(SCc4cc(C)ccc4C)nc4ccncc43)c(C)o2)c1 | inactive: -13.1% | 
O=C(NCc1ccccc1Cl)C1CCC(CNS(=O)(=O)c2ccc(Br)s2)CC1 (stereo unspecified) | inactive: -7.89% | 
Cc1ccc(-c2nn3c(-c4ccc(C)cc4)nnc3c3ccccc23)cc1 | inactive: -3.73% | 
CNS(=O)(=O)CCc1ccc2[nH]cc(C3CCN(C)CC3)c2c1 | inactive: -4.53% | 
COc1ccccc1-n1c(SCC(=O)Nc2ccc(C)cc2)nc(O)cc1=O | inactive: -16.1% | 
COc1cc(CN(C(=O)c2oc3ccccc3c2C)C2CCS(=O)(=O)C2)cc(OC)c1OC (stereo unspecified) | inactive: -4.08% | 
COc1cccc(NC(=O)c2cc3c(=O)n(Cc4cccnc4)ccc3nc2C)c1 | inactive: 1.11% | 
Cc1ccc(-c2nc(S(=O)(=O)c3ccc(C)cc3)c(SCC(=O)NC3CCCCC3)o2)cc1 | inactive: -20% | 
COc1ccc(-c2noc(-c3ccc(NC(C)c4ccccc4)c([N+](=O)[O-])c3)n2)cc1OC (stereo unspecified) | inactive: -10.2% | 
CCOc1ccccc1CN(CCc1ccc2c(c1)OCO2)Cc1cccc(OC)c1OC | inactive: -35.6% | 
CN(C)c1ccc(NC(=O)CSC2=Nc3ccccc3C3=NC(CC(=O)NCc4ccccc4)C(=O)N23)cc1 (stereo unspecified) | inactive: -4.59% | 
CCN1CCC(N(Cc2ccc3c(c2)OCO3)C(=O)Nc2ccccc2OC)CC1 | inactive: -10.6% | 
CCOC(=O)c1c(C)[nH]c(CCC(=O)NCc2ccccc2C)c1C | inactive: -6.81% | 
COc1cc(NC(=O)C(CCS(C)(=O)=O)N2Cc3ccccc3C2=O)cc(OC)c1OC (stereo unspecified) | inactive: -20.4% | 
CCCN1C(=O)c2[nH]nc(-c3ccc(F)cc3)c2C1c1ccccn1 (stereo unspecified) | inactive: -4.21% | 
Cc1ccc(N2CC(c3nnc(NC(=O)c4ccco4)s3)CC2=O)cc1C (stereo unspecified) | inactive: -10.6% | 
O=C(NC1CCCC1)c1ccc(CSc2nc3ccncc3n2Cc2ccc(F)cc2)cc1 | inactive: -32.6% | 

SMILES | activity change, negative = inhibition | Potency
COc1ccc(-n2cc(C(=O)NC(C)c3ccccc3)c3ccccc3c2=O)cc1 (stereo unspecified) | inactive: -10.8% | 
CCCCC[C@H](O)C=C[C@H]1[C@H](O)CC(=O)[C@H]1CC=CCCCC(=O)O | inactive: -7.85% | 
CCOc1ccc(NC(=O)c2ccc(-c3cccc(Cl)c3C)o2)cc1 | inactive: 7.08% | 
Cc1cccc(C2C=C(c3ccc(F)cc3)Nc3nc4ccccc4n32)c1 (stereo unspecified) | inactive: 51.9% | 
CCOc1ccc(Cn2c(CNS(=O)(=O)c3ccc([N+](=O)[O-])cc3)nc3cccnc32)cc1 | inactive: -7.14% | 
COCCn1ccc2c(OCC(=O)NCc3ccc(F)cc3)cccc2c1=O | inactive: -2.54% | 
O=C(Nc1nc2cccc(-c3ccc(CN4CCS(=O)(=O)CC4)cc3)n2n1)C1CC1 | inactive: 25.3% | 
CN(C)c1ccc(CNC(=O)C2CCN(S(=O)(=O)c3cn(C)cn3)CC2)cc1 | inactive: -9.58% | 
COc1ccc(NC(=O)c2cc(C3CC3)nc3c2c(C)nn3-c2ccc(C)cc2)cc1OC | inactive: -13.6% | 
COc1ccccc1CNC(=O)c1oc2c(c1C)-c1nn(Cc3ccc(Cl)cc3)cc1CC2 | inactive: -21% | 
COc1ccc(NC(=O)c2sc3nc(-c4cc5cccc(OC)c5oc4=O)[nH]c(=O)c3c2C)cc1 | inactive: -11.9% | 
COc1cccc(CNC(=O)NCc2noc3ccc(C)cc23)c1 | inactive: -18.6% | 
Cc1ccc(NC(=O)CN2C=NS(=O)(=O)c3ccccc32)c(C)c1 | inactive: -9.71% | 
COc1ccc(N2CCN(C(=O)CCS(=O)(=O)c3cc(Br)cc4c3N(C(=O)C3CC3)CC4)CC2)cc1 | inactive: -13.9% | 
COc1ccc(NC(=O)CN2C(=O)COc3ccc(S(=O)(=O)N4CCOCC4)cc32)cc1Cl | inactive: -10.9% | 
COc1ccc(NC(=O)Nc2nnc(N3CCCCCC3)s2)c(OC)c1 | inactive: -27.5% | 
COc1cccc(-n2c(=O)c3cc(OC)c(OC)cc3n(CC(=O)Nc3ccccc3)c2=O)c1 | inactive: -16.2% | 
O=C(c1ccc2c(c1)N(Cc1ccc(F)cc1)C(=O)c1ccccc1S2(=O)=O)N1CCCCCC1 | inactive: -36.1% | 
Cc1ccc(N2CC(NC(=O)c3ccco3)CC2=O)cc1 (stereo unspecified) | inactive: -10.3% | 
O=C(Nc1cc2c(cc1C(=O)c1ccc(Br)cc1)OCCO2)c1ccc(Cl)cc1 | inactive: -1.77% | 
Cc1ccc(C)c(S(=O)(=O)c2cn(C)c3cc(F)c(F)cc3c2=O)c1 | inactive: -9.55% | 
CC(=O)Nc1ccccc1-c1nc2ccccc2n(CC(=O)Nc2ccc(C)c(Cl)c2)c1=O | inactive: -2.66% | 
COc1ccc(CCn2c(=O)c3ccccc3n(CC(=O)Nc3cccc(C)c3)c2=O)cc1OC | inactive: 14.6% | 
Cc1ccc(S(=O)Cc2ccc(C(=O)NC3CCCCCC3)o2)cc1 (stereo unspecified) | inactive: -10% | 

SMILES | activity change, negative = inhibition | Potency
Cc1ccccc1CN1C(=O)c2ccccc2S(=O)c2ccc(C(=O)NCc3ccco3)cc21 (stereo unspecified) | inactive: -22.6% | 
Cc1[nH]c2ccc(C(=O)Nc3ccc(F)cc3)cc2c1C | inactive: 64.5% | 
CCN(C(=O)CCS(=O)(=O)c1ccc2c(c1)oc(=O)n2C)c1ccc(OC)cc1 | inactive: 20.8% [at 11.5 µM] | 
Cc1ccc(NC(=O)CSc2nc3c(c(=O)[nH]2)CCC3)cc1Cl | inactive: -20.3% | 
CCS(=O)(=O)N1CCC2(CC1)OC(=O)C(C)=C2C(=O)NCc1cccc(Cl)c1 | inactive: -18.7% | 
CCn1c(COc2cccc(C)c2)nc2ccccc21 | inactive: -13.4% | 
COc1cc2c(cc1NC(=O)COc1ccc(Br)cc1C)oc1ccccc12 | inactive: 1.61% | 
CC(C)CCNC(=O)CCC(=O)N1Cc2ccccc2Oc2ncccc21 | inactive: 0.0987% | 
CCn1c(SCC(=O)Nc2ccccc2)nc2c([nH]c3ccccc32)c1=O | inactive: -4.21% | 
COc1ccccc1C(=O)Nc1c(C(=O)N2CCN(c3ccccc3F)CC2)oc2ccccc12 | inactive: -26.7% | 
COc1ccc(NC(=O)CCCSc2nc(-c3ccco3)cc(C(F)(F)F)n2)cc1 | inactive: -28.9% | 
Cc1cc2c(cc1S(=O)(=O)NCc1ccccc1)OCC(=O)N2 | inactive: -24.9% | 
O=C(c1ccccc1)c1ccc2nc(N3CCN(c4ccccc4)CC3)c3nncn3c2c1 | inactive: -19.7% | 
Cc1ccc(CNC(=O)c2ccc3c(c2)NC(=O)C(CS(=O)(=O)Cc2ccc(F)cc2)N3)cc1 (stereo unspecified) | inactive: 0.0395% | 
CN(C)c1cccc(C(=O)Nc2nc3ccc(S(=O)(=O)NC(C)(C)C)cc3s2)c1 | inactive: -27.8% | 
CCC1CCCCN1CCCNC(=O)c1cn(CC)c2ccc(S(=O)(=O)N(C)C3CCCCC3)cc2c1=O (stereo unspecified) | inactive: -6.69% | 
Cc1nc2ccc(S(=O)(=O)CCC(=O)Nc3ccc(C(C)C)cc3)cc2s1 | inactive: -11.5% | 
O=C(/C=C/c1ccc(O)c(O)c1)O[C@@H]1C[C@@](OC(=O)/C=C/c2ccc(O)c(O)c2)(C(=O)O)C[C@@H](O)[C@@H]1O | inactive: 11.5% | 
COC(=O)c1sc(-c2ccccc2)cc1NC(=O)Nc1ccccc1Cl | inactive: -22% | 
Cc1cc(C)cc(Nc2nc3ccccc3nc2-n2nc(C)cc2C)c1 | inactive: -8.54% | 
CCOC(=O)N1CCc2c(sc3c2c(=O)n(Cc2ccccc2)c(=O)n3CC(=O)Nc2cccc(C)c2)C1 | inactive: -6.29% | 
COc1ccc(-c2cn3c(n2)sc2cc(C(=O)Nc4c(C)cccc4C)ccc23)cc1 | inactive: -12.7% | 
Cc1ccc(CNC(=O)C2(c3cccs3)CCOCC2)cc1 | inactive: -2.91% | 
CCCCC(=O)Nc1cc(-c2nc3cccnc3s2)ccc1C | inactive: 26.3% | 
